Experimental data reported in the supplement of paper PMC3334620.
Whole data set: some 33,000 sequences, median “E-score (-0.5 to 0.5)” near -0.013, cut for the highest 2% near 0.3. The list shows a part of the results.

What follows are sequences tested against T1, Msn1 (UniProt P22148) (assay: PBM E-score (8-mer binding enrichment) (E-score (-0.5 to 0.5)); higher = stronger / more preferred TF binding; most listed sequences are background and not binding sites). Settings: protein concentration: 200 nM; construct: GST-full length.
T1 sequence: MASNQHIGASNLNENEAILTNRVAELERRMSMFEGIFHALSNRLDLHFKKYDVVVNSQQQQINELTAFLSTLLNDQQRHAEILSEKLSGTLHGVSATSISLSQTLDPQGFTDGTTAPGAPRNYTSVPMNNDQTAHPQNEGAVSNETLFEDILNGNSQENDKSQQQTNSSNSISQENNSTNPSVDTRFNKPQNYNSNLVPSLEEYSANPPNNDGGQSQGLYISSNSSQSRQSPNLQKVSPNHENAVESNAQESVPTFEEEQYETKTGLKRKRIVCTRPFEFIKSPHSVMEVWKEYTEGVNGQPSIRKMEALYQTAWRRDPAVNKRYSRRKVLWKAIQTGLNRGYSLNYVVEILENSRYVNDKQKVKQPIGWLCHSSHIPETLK
How it was run: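 Yeast transcription factors, full-length or as DNA-binding domains, were expressed with a GST tag using PURExpress in vitro transcription/translation. At about 100-200 nM they were applied to universal all-10-mer Agilent arrays, double-stranded by primer extension on fresh or once-stripped slides. Fluorescent anti-GST detected bound protein, and masliner normalised the scans. E-scores for ungapped eight-base words, pooled with reverse complements, came from the Universal PBM Analysis Suite.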

Sequence | PBM E-score
CCCTTAGA | -0.184
CGTTCTCA | -0.113
AGAATTAC | 0.115
CTCACACA | -0.0331
GAATGTCA | 0.373
CCAGACCA | -0.105
GCTAGAAA | 0.165
TAGCCATA | -0.0762
ATGGGAGC | -0.106
ACGCTAGC | -0.0853
CTATGCAC | -0.278
GACACACC | 0.235
TGAGCCAA | -0.0952
CAACTGGA | -0.128
AAGAATTG | 0.102
GATGCGCC | 0.0596
CGGAAAAG | 0.184
AAGAGAGT | -0.107
AACCAGCA | -0.14
CCACAACC | -0.0582
CTAGAGCC | -0.127
ATTTTTGC | 0.208
GCGTGAGA | -0.00665
AACCTTTC | -0.185
ATTGTCGG | 0.318

Sequence | PBM E-score
CATCCTGC | -0.0899
GCGATTAC | -0.132
CCACTCAC | -0.191
GACCGCGA | 0.027
CACTCTCC | -0.0252
CCTTAATA | 0.0882
ACTGGTGA | -0.171
CCCCCCCA | -0.238
GATGCATA | -0.0415
GGTACAGA | 0.133
CAAGATAG | -0.221
ATGAGGAA | 0.0144
AAGCGCGG | 0.00342
CCAAGCGA | -0.119
GCAAGCCC | -0.176
ATAGCAAA | 0.113
CATGCGGC | -0.0514
GTATGAGA | 0.095
CATGGTCC | -0.0489
ATACTGCG | -0.167
AGTCACAA | 0.114
CCCGACAC | -0.0956
ATCCCATA | -0.0979
CAAGTTGG | 0.139
CAGGTACC | -0.0898

Sequence | PBM E-score
GAAGCGTC | -0.0802
CCTCCTCG | -0.346
GAACGGGC | -0.175
AGTCTGCG | -0.127
CACGCAGA | 0.0532
ACTACAAC | 0.0974
TATGGGAA | -0.0228
AAAAACGA | 0.126
TCTCCGCA | 0.0234
GTTGGGGA | -0.0295
AGTGGGTA | 0.0163
AGCATCCC | -0.175
CACATGGG | -0.22
AGACCGAT | 0.0374
CCTCCCGC | -0.0713
ACAGGACC | 0.0142
GCTGACCA | -0.106
GCGAGACC | -0.0729
ACTTGTTC | 0.131
AATGAATT | 0.115
GAAGAACC | -0.169
AGCACGAG | -0.127
GGTATCAA | 0.0141
AGGGATCC | -0.287
ATGTCGCG | 0.387

Sequence | PBM E-score
CGAGAACG | 0.0519
CAGGGCCA | -0.369
CTGATTTC | -0.104
AACGCTAT | -0.0461
ACGATCCT | -0.0372
CTCAGCCA | -0.12
CACACCCG | 0.0155
GCCAAAAC | -0.0976
TAATAAAA | 0.282
CGAATGCG | 0.136
AAGAGGGC | -0.216
ACTGTCCC | 0.127
TAGTCGCA | -0.032
CAAATTAG | 0.163
AAATGTTA | 0.165
AAGGATGG | -0.0333
GGGCTGCA | -0.0742
ATCGACCC | -0.11
GGCTGTAC | -0.0827
GGTAATGA | 0.116
AGGTCAAC | -0.0773
ATCGTCGA | -0.166
GCTAGAAC | -0.0835
CCTGGCCA | -0.107
CGTCCGCC | -0.165

Sequence | PBM E-score
GATGCGGA | 0.107
GTCTCTCA | 0.14
ATAATACC | 0.136
CCTGGAAC | -0.0583
CCAGATCA | 0.109
GGGTGCAC | -0.237
CCGGCGGA | 0.0417
CATCAGAG | -0.175
GCTTGAAC | 0.187
CCGGACCG | 0.0321
TACAAAGA | 0.208
ACCGATAG | 0.0834
AGCAATCC | -0.175
GGGACACC | 0.185
ACGTTGTA | 0.101
CAAGTGCC | -0.15
ACTGGGCG | -0.201
ACGGTGCA | -0.156
CTCGGGAC | 0.198
TACTGTGA | 0.237
AACTGAAG | 0.0752
AGACAGTC | 0.0234
GCAATGGC | -0.287
TCAAGGCA | -0.27
CCTCGGAG | 0.113

Sequence | PBM E-score
AGCCAGAA | -0.0454
AGGTCCAA | -0.00743
CAGGATAA | -0.0283
AACGGATT | 0.265
CAATATTC | 0.186
CTCATTTA | -0.035
ATGCGGGG | -0.104
CCAGGAAC | -0.148
GGTAAATA | 0.0196
CCAATTCA | 0.0106
CTTAAGTA | 0.118
AGTTACCA | 0.06
CATGTGCA | -0.29
AGCATGGC | -0.142
ACGGAGGG | -0.229
CCTGTACA | 0.224
GCGGGATA | 0.0848
AGGAGACG | -0.298
CGCAAGAC | 0.0173
ATACATAA | 0.21
GCCATATA | -0.00728
CCACACAG | -0.00645
AACGATGT | 0.249
CAGGCATG | -0.0363
AGCGATCC | -0.101

Sequence | PBM E-score
AGCTCCCT | -0.246
GCTCTGGA | 0.0294
CAGCGACG | -0.102
GCTAGACC | -0.208
ATGCAGGA | -0.0548
GTTACGTA | -0.133
CATAGAAA | 0.201
ATAACCAG | 0.0452
ATCGCCAG | -0.0614
AATGAGAT | 0.119
AAGCGTAG | -0.153
CCAAAGAC | 0.242
ACACAAGT | 0.221
TAAGTCCA | 0.26
GACGCCCC | -0.306
CCAGATGC | -0.0269
ATTCTCTA | 0.0164
ATATCAGA | 0.16
TCCTCCGA | -0.071
GTAGATAA | 0.0986
TCGCCGAA | 0.099
CGTGTTTC | 0.0244
